Experimental data: the supplement of paper PMC6089552
The whole screen tested about 3,200 compounds, of which about 300 (9.4%) showed activity. This is a selection; strong and weak results do not stand in their true shares.

System: A673/TR/shEF
Assay: cell viability (LOESS-normalised, relative to median of negative controls) (log2 ratio); higher = more viable cells (less compound effect), active = hit call of the paper (over 3 MAD below the median)
Conditions: treatment time: 72 h
Procedure, shortened: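 Viability of A673/TR/shEF Ewing sarcoma cells was determined by CellTiter-Glo luminescence. The cells, at 1,500 per well in 384-well plates, were grown with or without doxycycline from 24 h before compound addition to switch on EWS-FLI1 shRNA knockdown, then exposed for three days to library compounds at two or more concentrations or to DMSO controls. Signals were LOESS-corrected plate by plate, normalised to the negative-control median and log2-transformed.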

[1] = 0.103 µM, library screen: screen3, EWS-FLI1 expression: high (no doxycycline)
[2] = 0.103 µM, library screen: screen3, EWS-FLI1 expression: low (doxycycline-induced shRNA knockdown)
[3] = 0.25 µM, library screen: screen1, EWS-FLI1 expression: high (no doxycycline)
[4] = 0.25 µM, library screen: screen1, EWS-FLI1 expression: low (doxycycline-induced shRNA knockdown)
[5] = 0.25 µM, library screen: screen2, EWS-FLI1 expression: high (no doxycycline)
[6] = 0.25 µM, library screen: screen2, EWS-FLI1 expression: low (doxycycline-induced shRNA knockdown)
[7] = 0.308 µM, library screen: screen3, EWS-FLI1 expression: high (no doxycycline)
[8] = 0.308 µM, library screen: screen3, EWS-FLI1 expression: low (doxycycline-induced shRNA knockdown)
[9] = 0.926 µM, library screen: screen3, EWS-FLI1 expression: high (no doxycycline)
[10] = 0.926 µM, library screen: screen3, EWS-FLI1 expression: low (doxycycline-induced shRNA knockdown)
[11] = 2.5 µM, library screen: screen1, EWS-FLI1 expression: high (no doxycycline)
[12] = 2.5 µM, library screen: screen1, EWS-FLI1 expression: low (doxycycline-induced shRNA knockdown)
[13] = 2.5 µM, library screen: screen2, EWS-FLI1 expression: high (no doxycycline)
[14] = 2.5 µM, library screen: screen2, EWS-FLI1 expression: low (doxycycline-induced shRNA knockdown)
[15] = 2.8 µM, library screen: screen3, EWS-FLI1 expression: high (no doxycycline)
[16] = 2.8 µM, library screen: screen3, EWS-FLI1 expression: low (doxycycline-induced shRNA knockdown)
[17] = 8.3 µM, library screen: screen3, EWS-FLI1 expression: high (no doxycycline)
[18] = 8.3 µM, library screen: screen3, EWS-FLI1 expression: low (doxycycline-induced shRNA knockdown)
[19] = 25 µM, library screen: screen3, EWS-FLI1 expression: high (no doxycycline)
[20] = 25 µM, library screen: screen3, EWS-FLI1 expression: low (doxycycline-induced shRNA knockdown)

Measured: cell viability (log2)

COc1ccc2c(c1)c(CC(=O)O)c(C)n2C(=O)c1ccc(Cl)cc1
inactive: [1] 0.0635 | [2] 0.0929 | [3] 0.0764 | [4] 0.0215 | [5] 0.146 | [6] 0.151 | [7] 0.173 | [8] 0.108 | [9] 0.137 | [10] 0.0521 | [11] 0.151 | [12] 0.0769 | [13] 0.181 | [14] 0.129 | [15] 0.0767 | [16] 0.0496 | [17] 0.0711 | [18] 0.105 | [19] 0.189 | [20] 0.138

Nc1nc2ccc(OC(F)(F)F)cc2s1
inactive: [1] 0.0928 | [2] 0.042 | [5] 0.203 | [6] 0.136 | [7] 0.0938 | [8] 0.128 | [9] 0.0938 | [10] 0.0398 | [13] 0.181 | [14] 0.143 | [15] 0.053 | [16] 0.0407 | [17] 0.0456 | [18] 0.0295 | [19] 0.0947 | [20] 0.0465

Oc1cc(O)c2c(c1)O[C@H](c1ccc(O)c(O)c1)[C@H](O)C2
inactive: [3] 0.0624 | [4] 0.0382 | [11] 0.061 | [12] 0.0218

C(=C\c1ccccc1)/CN1CCN(C(c2ccccc2)c2ccccc2)CC1
inactive: [5] 0.0863 | [6] 0.048 | [13] 0.146 | [14] 0.101

Cn1c(=O)[nH]c(=O)c2[nH]cnc21
inactive: [3] 0.136 | [4] -0.0262 | [11] 0.111 | [12] 0.0112

O=C(C1CCCCC1)N1CC(=O)N2CCc3ccccc3C2C1 (configuration not stated)
inactive: [3] 0.0937 | [4] 0.0968 | [5] 0.175 | [6] 0.0597 | [11] 0.113 | [12] 0.159 | [13] 0.105 | [14] 0.0556

COc1ccc2c(c1OC)C(=O)O[C@@H]2[C@H]1c2c(cc3c(c2OC)OCO3)CCN1C
inactive: [3] -0.0184 | [4] 0.141 | [5] 0.0677 | [6] 0.143 | [11] 0.089 | [12] 0.145 | [13] 0.125 | [14] 0.0492

COc1cc(CN2CCN(Cc3cccc(Cl)c3)CC2)c([N+](=O)[O-])cc1OC
inactive: [3] 0.103 | [4] 0.0472 | [11] 0.18 | [12] 0.111

CC(C)C[C@H](NC(=O)[C@H](O)[C@H](N)Cc1ccccc1)C(=O)O
inactive: [5] 0.14 | [6] 0.0402 | [13] 0.0931 | [14] 0.0118

CN(C)CC(=O)Nc1ccc2[nH]c(=O)c3ccccc3c2c1
inactive: [5] 0.195 | [6] 0.036 | [13] 0.0668 | [14] 0.0496

CC[N+](CC)(CC)CCOc1ccc(/C=C/c2ccccc2)cc1
inactive: [5] 0.171 | [6] 0.105 | [13] 0.131 | [14] 0.0953

Cc1c(NC(=O)Nc2ccc3ccccc3c2)c(=O)n(-c2ccccc2)n1C
inactive: [3] 0.0897 | [4] 0.113 | [11] 0.056 | [12] 0.16

CC(=O)O[C@H]1CC[C@@]2(C)C(=CC[C@@H]3[C@@H]2CC[C@]2(C)C(c4cccnc4)=CC[C@@H]32)C1
inactive: [1] 0.019 | [2] 0.0367 | [7] -0.015 | [8] 0.0394 | [9] 0.0136 | [10] 0.00409 | [15] 0.0331 | [16] 0.0286 | [17] 0.0532 | [18] 0.0629 | [19] -0.0109 | [20] 0.0721

C=C1C(CCl)(CCl)C2(Cl)C(Cl)C(Cl)C1(Cl)C2(Cl)Cl (configuration not stated)
inactive: [3] 0.0656 | [4] 0.021 | [11] 0.0692 | [12] 0.132

CN(C)C(=O)C(CCN1CCC(O)(c2ccc(Cl)cc2)CC1)(c1ccccc1)c1ccccc1
0.439: [3]
inactive: [1] 0.00244 | [2] 0.0453 | [4] 0.13 | [5] 0.173 | [6] 0.124 | [7] 0.0107 | [8] 0.129 | [9] 0.0214 | [10] 0.106 | [11] 0.201 | [12] -0.00656 | [13] 0.157 | [14] 0.0931 | [15] 0.0795 | [16] 0.0725 | [17] 0.0781 | [18] 0.0661 | [19] 0.0382 | [20] 0.0763

O=C(O)C1CCCNC1 (configuration not stated)
inactive: [3] 0.0566 | [4] 0.0758 | [5] -0.0538 | [6] 0.129 | [11] 0.131 | [12] 0.067 | [13] 0.203 | [14] 0.169

NC(N)=NC(N)=Nc1cccc(Cl)c1
inactive: [5] 0.145 | [6] 0.0324 | [13] 0.0567 | [14] 0.0608

C[C@H]1O[C@@H](O[C@H]2[C@@H](O)C[C@H](O[C@H]3[C@@H](O)C[C@H](O[C@H]4CC[C@@]5(C)[C@H](CC[C@@H]6[C@@H]5C[C@@H](O)[C@]5(C)[C@@H](C7=CC(=O)OC7)CC[C@]65O)C4)O[C@@H]3C)O[C@@H]2C)C[C@H](O)[C@@H]1O
inactive: [3] -0.0229 | [4] -0.153
active: [11] -2.32 | [12] -1.91

CC(C)=CCC[C@@H](C)[C@H]1CC[C@@]2(C)C3=C(CC[C@]12C)[C@@]1(C)CC[C@H](O)C(C)(C)[C@@H]1CC3
inactive: [3] 0.101 | [4] -0.00557 | [11] 0.158 | [12] 0.0178

O=c1ccc2cc(O)c(O)cc2o1
inactive: [3] -0.014 | [4] 0.0916 | [11] 0.128 | [12] 0.0922

C[C@H](CCC(=O)O)[C@H]1CC[C@H]2[C@@H]3[C@H](O)C[C@@H]4C[C@H](O)CC[C@]4(C)[C@H]3C[C@H](O)[C@]12C
inactive: [3] 0.0945 | [4] 0.0736 | [11] 0.133 | [12] 0.116

O=C(OCC(O)CO)c1ccccc1Nc1ccnc2cc(Cl)ccc12 (configuration not stated)
inactive: [3] 0.0611 | [4] 0.0198 | [11] 0.156 | [12] 0.0175

Cc1cc(O)c2c(c1)C(=O)c1cccc(O)c1C2=O
inactive: [3] 0.0882 | [4] 0.1 | [11] 0.0643 | [12] 0.0809

NC(=O)c1cn(Cc2c(F)cccc2F)nn1
inactive: [1] 0.0918 | [2] 0.0809 | [7] 0.113 | [8] 0.087 | [9] 0.0716 | [10] 0.0801 | [15] 0.0643 | [16] 0.0783 | [17] 0.0937 | [18] 0.0955 | [19] 0.164 | [20] 0.0617

COc1cc2c(N3CCN(C(=O)Nc4ccc(OC(C)C)cc4)CC3)ncnc2cc1OCCCN1CCCCC1
inactive: [1] -0.0129 | [2] -0.0538 | [7] -0.0428 | [8] -0.0392 | [9] -0.0343 | [10] -0.0604 | [15] 0.0597 | [16] 0.0175 | [17] 0.0441 | [18] 0.0441 | [19] -0.0915 | [20] 0.0601

CC(C(=O)O)c1ccc(-c2ccccc2)c(F)c1 (configuration not stated)
inactive: [1] 0.121 | [2] 0.068 | [3] 0.12 | [4] -0.0943 | [7] 0.102 | [8] 0.12 | [9] 0.113 | [10] 0.145 | [11] 0.214 | [12] 0.0375 | [15] 0.00771 | [16] 0.108 | [17] 0.0867 | [18] 0.0898 | [19] 0.0301 | [20] 0.127

COc1ccccc1N(C(N)=O)c1nc(-c2cccnc2)nc2ccccc12
inactive: [5] 0.155 | [6] 0.0439 | [13] 0.275 | [14] 0.0633

COc1ccccc1N1CCN(CCCCN2C(=O)c3ccccc3C2=O)CC1
inactive: [5] 0.04 | [6] 0.096 | [13] 0.126 | [14] 0.0323

C=C1C2=CC(=O)O[C@@H](c3ccoc3)[C@]2(C)CCC1[C@@]1(C)C=CC(=O)C(C)(C)[C@@H]1CC(=O)OC (some centres not stated)
inactive: [3] 0.0212 | [4] -0.0342 | [11] -0.0229 | [12] 0.0744

Cc1cccc(C)c1OCC(C)N (configuration not stated)
inactive: [5] 0.132 | [6] 0.0816 | [13] 0.195 | [14] 0.0671

COc1cc(C)c2c(c1C=O)Oc1c(c(C)c(O)c3c1C(O)OC3=O)OC2=O (configuration not stated)
inactive: [3] 0.0345 | [4] 0.132 | [11] 0.154 | [12] 0.0527

CC[C@]1(O)C[C@H]2CN(CCc3c([nH]c4ccccc34)[C@@](C(=O)OC)(c3cc4c(cc3OC)N(C=O)[C@H]3[C@@](O)(C(=O)OC)[C@H](OC(C)=O)[C@]5(CC)C=CCN6CC[C@]43[C@@H]65)C2)C1
active: [1] -3.56 | [2] -0.748 | [5] -2.87 | [6] -0.436 | [7] -3.82 | [8] -0.668 | [9] -3.92 | [10] -0.728 | [13] -2.88 | [14] -0.517 | [15] -3.8 | [16] -0.704 | [17] -3.93 | [18] -0.847 | [19] -3.66 | [20] -0.84
